Test system: ethylene signaling pathway
Conditions: 7-day-old seedlings, normal conditions, vs mock

**Q.** How did the “GUS activity in root tips of pEBF2::GUS reporter line” value turn out when `NC1(C(=O)O)CC1` [ACC, 1-aminocyclopropane-1-carboxylic acid] was run?
**A.** The value was “strong GUS activity”.
